# Experimental data taken from PubChem BioAssay AID1508642 (National Center for Advancing Translational Sciences (NCATS), 2021).
# In all, about 43,000 compounds went through this assay and about 200 (0.47%) were called active. About 12% were inconclusive and are not listed. The call rests on the fitted dose curve; in most records, active means well fitted cell-killing curve with a large enough effect; inconclusive means small, poorly fitted or top-dose-only effect, or effect the other way; inactive means flat fitted curve, though single readings scatter. This is one part of the list.
# Test: Cell viability qHTS assay in S16 Pmp22-F2sN cells; further: nearly all actives have a fitted effect of over 65% in size
# Details: S16 Pmp22-F2sN Schwann cells (luciferase reporters placed in the Pmp22 gene) viability, CellTiter-Glo, 24 h; series mostly up to 57.5 µM; activity change, negative = cytotoxicity: at the top concentration
# How it was run: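 CellTiter-Glo counter-screen, qHTS, 1536-well. Cells: S16(c9) Pmp22-F2sN, 500-1,000/well in DMEM + 10% FBS. Cpd 23 nL pin transfer, 24 h, 37C/5% CO2. Read: luminescence, CCD imager.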
# On the % scale 0 is the no-effect control and ±100 the full control effect; potency means the concentration at half of the fitted maximal effect.
Compound,"activity change, negative = cytotoxicity",Potency
Cc1cccc(C)c1NC(=O)CSc1nc2ncccc2o1,inactive: 2.48%,–
COc1ccc(Cn2c(CCC(=O)Nc3cccc(OC)c3)nc3cccnc32)cc1,inactive: -0.392%,–
CC(=O)N1CCc2cc(CNC(=O)Nc3cc(Cl)ccc3C)ccc21,inactive: -3.08%,–
CCc1ccc(CNC(=O)C2CCN(c3nc4ccccc4nc3C(F)(F)F)CC2)cc1,inactive: 4.75%,–
Cc1ccc(NC(=O)Cn2nnc(-c3nc(-c4ccncc4)no3)c2N)c(C)c1,inactive: 11.1%,–
CC(NC(=O)C1CCN(C(=O)c2ccc(-n3ccc4ccccc43)s2)CC1)c1ccccc1 (stereo not drawn),inactive: -9.74%,–
COc1ccccc1NC(=O)C1=C(C)Nc2nc(SCc3ccc(Cl)cc3)nn2C1c1ccccc1Cl (stereo not drawn),inactive: -5.41%,–
CCOC(=O)c1c(NC(C)=O)c2c3c(sc2n1Cc1ccc(Cl)cc1)CCCC3,inactive: 17.2%,–
COc1cc(C2NC(=O)N(C)C3=C2C(=O)N(c2cccc(Cl)c2)C3)ccc1O (stereo not drawn),inactive: -1.64%,–
CCOC(=O)C1CCN(C(=O)CN2c3ccc(C(C)C)cc3-c3ccccc3S2(=O)=O)CC1,inactive: -0.441%,–
CCOc1ccc(OC(=O)c2cn(-c3cccc(OC)c3)c(=O)c3ccccc23)cc1,inactive: 2.24%,–
CC1CCN(C(=O)c2cc3c(=O)n(C)c4ccccc4c3s2)CC1,inactive: -1.63%,–
CS(=O)(=O)c1oc(-c2ccc(F)cc2)nc1S(=O)(=O)c1ccc(Cl)cc1,–,active: 5.62 µM
CCOc1ccccc1CNC(=O)c1ccc(-c2nc(CSc3ccc(C)cc3)c(C)o2)cc1,inactive: -0.83%,–
COc1ccc(-n2c(=O)c3c(C)c(C)sc3n(CC(=O)NCc3ccc(C)cc3)c2=O)c(OC)c1,inactive: 6.29%,–
O=C(NCc1ccc(F)cc1)C1CCCN(c2ncnc3onc(-c4ccc(F)cc4)c23)C1 (stereo not drawn),inactive: 2.79%,–
COc1cccc(-n2c(SCC(=O)Nc3cccc(Cl)c3)nc3c(oc4ccccc43)c2=O)c1,inactive: -10.7%,–
Cc1c(NC(=O)CC(C)C)cccc1-c1nc2cccnc2s1,inactive: -15.2%,–
O=C(CSc1cn(CCNC(=O)c2ccccc2F)c2ccccc12)Nc1ccccc1F,inactive: 13.1%,–
COc1ccc(/C=C\C(=O)NC2CC(=O)N(c3ccc(F)cc3)C2)cc1OC (stereo not drawn),inactive: 7.17%,–
CCc1ccc(NCc2cc3ccc(OC)cc3n(CC(=O)Nc3ccc(C(C)C)cc3)c2=O)cc1,inactive: -22.1%,–
Cc1ccc(Nc2c(-c3ccsc3)nc3cccc(C)n23)cc1,inactive: -0.137%,–
CCOC(=O)CNC(=O)c1ccc(-c2nn(C)c(=O)c3ccccc23)cc1,inactive: 28.2%,–
COc1ccc(Cn2c(SCC(=O)Nc3ccc(OC)cc3)nc3ccccc32)cc1,inactive: -11.8%,–

Compound,"activity change, negative = cytotoxicity",Potency
O=C(COCc1cc(-c2ccco2)on1)Nc1cccc(O)c1,inactive: 3.74%,–
COc1cc(/C=C/c2nc3cc(Cl)ccc3c(=O)n2-c2cccc(C(F)(F)F)c2)cc(OC)c1OC,inactive: -17.2%,–
COc1cc(NC(=O)Nc2nnc(N3CCCCCC3)s2)cc(OC)c1,inactive: 8.37%,–
CC1CCCN(Cc2c(O)ccc3c(=O)c(Oc4ccc(C(C)(C)C)cc4)c(C(F)(F)F)oc23)C1 (stereo not drawn),inactive: 5.3%,–
Cn1c(=O)c(=O)n(C)c2cc(S(=O)(=O)CCC(=O)Nc3cccc(C(F)(F)F)c3)ccc21,inactive: -7.49%,–
Cc1ccc(-c2nc3c(cnn3-c3ccccc3)c(=O)n2-c2cccc(Cl)c2)cc1,inactive: -14.7%,–
CN(C)S(=O)(=O)c1ccc2c(c1)N(CC(=O)N1CCN(c3cccc(Cl)c3)CC1)CCS2,inactive: 12.1%,–
COc1ccc(-c2cn3nc(N4CCC(C(=O)Nc5ccc(Cl)cc5C)CC4)sc3n2)cc1,inactive: 7.9%,–
COc1ccc(-n2nc(C(=O)NCCc3ccc(OC)c(OC)c3)c3c4ccccc4n(C)c3c2=O)cc1Cl,inactive: 3.67%,–
Cc1oc(-c2ccc(C(=O)NCCc3ccc(Cl)cc3)cc2)nc1CSc1ccccc1,inactive: 1.58%,–
O=C(Cn1cc(SCc2ccccc2)c2ccccc21)N1CCCCCC1,inactive: -29.1%,–
CCOc1ccccc1CNC(=O)c1cnc2c(-c3ccc(OCC)c(OCC)c3)c(C)nn2c1C,inactive: -2.71%,–
Cc1ccc(S(=O)(=O)n2nc(C)c(S(=O)(=O)N3CCC(C)CC3)c2C)cc1,inactive: 11.2%,–
O=C(NCc1ccccc1)c1ccc2c(c1)N(Cc1cccc(Cl)c1)C(=O)c1ccccc1S2(=O)=O,inactive: -1.89%,–
Cc1ccc2nc(-c3ccc(Cl)c(NC(=O)c4cccc([N+](=O)[O-])c4C)c3)oc2c1,inactive: 6.45%,–
Cc1ccccc1CN1C(=O)c2ccccc2Sc2ccc(C(=O)OCc3ccco3)cc21,inactive: 1.92%,–
CCOC(=O)C1CCC(CN(Cc2c(Cl)cccc2Cl)S(=O)(=O)c2ccc(Cl)cc2)CC1 (stereo not drawn),inactive: -17.8%,–
CCn1ccc2cc(S(=O)(=O)N3CCC(C(=O)NCc4ccc(OC)cc4)CC3)ccc21,inactive: -4.89%,–
Cc1ccc(-c2nc(SCC(=O)N3CCc4ccccc43)c3c(=O)n(C)c(=O)n(C)c3n2)cc1,inactive: 8.11%,–
Cc1ccc(N2CCN(c3c(CN4CCCC4)c(=O)oc4ccccc34)CC2)c(C)c1,inactive: 6.65%,–
CCN(C(=O)c1cccn(Cc2ccccc2C)c1=O)c1ccccc1,inactive: 3.85%,–
CCOC(=O)C1CCN(C(=O)Cn2ncc3c4ccccc4n(Cc4ccccc4F)c3c2=O)CC1,inactive: 3.94%,–
CN(C)c1ccc(NC(=O)CN2C(=O)c3ccccc3Sc3ccc(C(=O)N4CCCC4)cc32)cc1,inactive: 4.23%,–
Cc1ccc(NC(=O)CN2C(=O)CCn3nc(-c4cccn4C)cc32)c(Cl)c1,inactive: -25.5%,–

Compound,"activity change, negative = cytotoxicity",Potency
O=c1n(Cc2ccc(F)cc2)nc2n1-c1cc(Cl)ccc1OC2,inactive: 17.5%,–
Cc1nnc(NC(=O)CSc2nnc3c(n2)[nH]c2ccccc23)s1,inactive: -20.3%,–
Cc1nn(CCCC(=O)NCc2cccc(Cl)c2)c(=O)c2c1sc1ccccc12,inactive: 3.26%,–
Cc1cccc(N2CCN(CCCNC(=O)c3sc4ncccc4c3-n3cccc3)CC2C)c1 (stereo not drawn),inactive: -15.5%,–
COC(=O)c1cnn(-c2ccc(C(=O)Nc3ccc(OC(F)(F)F)cc3)cc2)c1N,inactive: 7.18%,–
CCc1ccc(NC(=O)CN2CCSc3ccc(S(=O)(=O)N4CCCC4)cc32)cc1,inactive: -5.5%,–
COc1ccc(CCNc2nc(-c3ccc(F)cc3)cc(C(F)(F)F)n2)cc1OC,inactive: 12.7%,–
COc1ccc(C(CNC(=O)c2cccc([N+](=O)[O-])c2)N2CCOCC2)cc1 (stereo not drawn),inactive: 13.8%,–
Cc1ccc(Cc2cnc(NC(=O)C3Cc4ccc(C)cc4C(=O)O3)s2)cc1 (stereo not drawn),inactive: 19%,–
CCOc1ccc(S(=O)(=O)c2cn(C)c3ccccc3c2=O)cc1,inactive: 6.94%,–
CC(NC(=O)c1c2c(nc3ccccc13)C(=O)N(C1CCCCC1)C2)c1ccccc1 (stereo not drawn),inactive: -9.18%,–
Cc1ccc(CNC(=O)Cn2c(=O)ccc3cc(S(=O)(=O)N4CCCC4)ccc32)cc1,inactive: 14.2%,–
CCC(=O)N1CCc2cc(Br)cc(S(=O)(=O)CCC(=O)N3CCN(c4ccc(OC)cc4)CC3)c21,inactive: -0.078%,–
O=C(CCCn1c(=O)c2ccccc2n(CC(=O)Nc2cccc(Cl)c2)c1=O)NCc1ccc2c(c1)OCO2,inactive: 1.52%,–
COc1ccc(C(=O)NCC(c2ccc(N(C)C)cc2)N2CCCC2)cc1 (stereo not drawn),inactive: 24.7%,–
CC(=O)c1ccc(N2CCN(c3nc4c(S(=O)(=O)c5ccc(C)c(C)c5)nnn4c4ccc(Cl)cc34)CC2)cc1,inactive: 8.76%,–
Cc1cc(C)cc(-n2ccnc2SCC(=O)Nc2ccc(C)cc2C)c1,inactive: -22.4%,–
CCC(=O)Nc1ccccc1-c1nc2ccccc2n(C(C)C(=O)Nc2cccc(Cl)c2C)c1=O (stereo not drawn),inactive: -7.33%,–
CC(C)c1ccc(Nc2ncnc3c2nc2n3CCCC2)cc1,inactive: -22.9%,–
COc1cc(NC(=O)CNC(=O)Cn2ccc3ccccc3c2=O)cc(OC)c1OC,inactive: 0.166%,–
COCCn1c(C)cc(O)c(C(c2ccc(Cl)cc2)N2CCN(c3ccccc3)CC2)c1=O (stereo not drawn),inactive: -9.85%,–
CN1C(C(=O)c2ccccc2)=C(NC(=O)c2ccccc2Br)c2ccccc2S1(=O)=O,inactive: -0.7%,–
COc1ccc(NC(=O)Nc2cccc(OCc3cc(=O)n4cccc(C)c4n3)c2)c(OC)c1,inactive: -2.76%,–
CCCCCSc1nnc2c(n1)OC(CC)Nc1ccc(Br)cc1-2 (stereo not drawn),inactive: 7.12%,–

Compound,"activity change, negative = cytotoxicity",Potency
Cc1cc(C)cc(Nc2nc3ccccc3n3cnnc23)c1,inactive: 1.64%,–
COc1ccc(-c2cc(C(C)=O)c(C)n2CCC(=O)Nc2ccc(C)cc2Cl)cc1,inactive: -3.13%,–
COc1cc(C2N=C(N)Nc3nc4ccccc4n32)ccc1OCC(=O)O (stereo not drawn),inactive: 3.09%,–
CCc1ccc(NC(=O)Cc2csc(COc3cccc(C)c3)n2)cc1,inactive: 0.352%,–
CCn1c(=O)cc(SCC(=O)NCCc2cccc(C)c2)c2ccccc21,inactive: -22.6%,–
COc1ccc(-c2nc3nc(C)cc(N4CCN(c5cccc(C(F)(F)F)c5)CC4)n3n2)cc1,inactive: 21.7%,–
COCCCNC(=O)c1ccc(Cn2c(=O)c3ccccc3n(CC(=O)Nc3ccc(C)cc3C)c2=O)cc1,inactive: 3.31%,–
CCOC(=O)N1CCc2c(sc3c2c(=O)n(-c2ccc(Cl)cc2)c(=O)n3Cc2cccc(OC)c2)C1,inactive: -0.712%,–
Cc1cccc(N2CC(c3nc4ccccc4n3CCC3CCCCC3)CC2=O)c1 (stereo not drawn),inactive: 0.1%,–
Cc1cccc2c1-c1sc(C(=O)NCc3ccc(Cl)cc3)cc1CO2,inactive: -0.135%,–
CCN(Cc1ccccc1)C(=O)c1cc2c(=O)oc3ccc(C)cc3c2s1,inactive: -4.56%,–
CCc1ccc(S(=O)(=O)c2nnn3c2nc(Nc2cc(OC)cc(OC)c2)c2cc(Cl)ccc23)cc1,inactive: -1.12%,–
Cc1cc(C)cc(NC(=O)Cn2nnc(C(=O)NCc3ccccc3Cl)c2N)c1,inactive: -15%,–
CCOc1ccc(C(=O)Nc2ccccc2C(=O)OCc2cc(=O)n3nc(C4CC4)sc3n2)cc1,inactive: 26.2%,–
COc1ccc(CCNC(=O)c2cc3c(s2)-c2c(C)cccc2OC3)c(OC)c1,inactive: 10.2%,–
Cc1cccc(NC(=O)CSc2nc(=O)n(Cc3ccco3)c3c2CCC3)c1C,inactive: 0.679%,–
CCOc1ccc(NC(=O)[C@H]2O[C@@H]3OC(C)(C)O[C@@H]3[C@H]3OC(C)(C)O[C@H]32)cc1,inactive: 3.23%,–
CCOc1ccccc1CNC(=O)c1cn(-c2ccc(OC)cc2)c(=O)c2ccccc12,inactive: -17.7%,–
COc1cccc(CNC(=O)CSc2n[nH]c(-c3ccccc3Cl)n2)c1OC,inactive: 4.27%,–
CCOc1ccc(CN(C(=O)c2nc(SC)ncc2Cl)C2CCS(=O)(=O)C2)cc1 (stereo not drawn),inactive: 8.85%,–
O=C(Nc1nc2ccc(S(=O)(=O)N3CCCC3)cc2s1)c1ccc(F)cc1,inactive: -1.38%,–
